Measured values as given in a collection of fitness landscapes (doi:10.1126/science.1257360).
The other results are listed elsewhere or left out.

B1: PhoQ; a variant is named by its letters at X, in order, P23837 (parent)
chain: MKKLLRLFFPLSLRVRFLLATAAVVLVLSLAYGMVALIGYSVSFDKTTFRLLRGESNLFYTLAKWENNKLHVELPENIDKQSPTMTLIYDENGQLLWAQRDVPWLMKMIQPDWLKSNGFHEIEADVNDTSLLLSGDHSIQQQLQEVREDDDDAEMTHSVAVNVYPATSRMPKLTIVVVDTIPVELKSSYMVWSWFIYVLSANLLLVIPLLWVAAWWSLRPIEALAKEVRELEEHNRELLNPATTRELTSLVRNLNRLLKSERERYDKYRTTLTDLTHSLKTPLXXLQXXLRSLRSEKMSVSDAEPVMLEQISRISQQIGYYLHRASMRGGTLLSRELHPVAPLLDNLTSALNKVYQRKGVNISLDISPEISFVGEQNDFVEVMGNVLDNACKYCLEFVEISARQTDEHLYIVVEDDGPGIPLSKREVIFDRGQRVDTLRPGQGVGLAVAREITEQYEGKIVAGESMLGGARMEVIFGRQHSAPKDE

Variants of: B1
Test: enrichment ratio after two sorts for PhoP signalling (ratio (wild type AVST 3.29)); higher = more functional
Details: with PhoP (E. coli)

| Variant | enrichment ratio |
| --- | --- |
| MRHM | ≤ 0.25 |
| PAPF | ≤ 0.25 |
| PVCL | ≤ 0.25 |
| DEMA | ≤ 0.25 |
| WHSR | ≤ 0.25 |
| YVPM | ≤ 0.25 |
| VLHE | ≤ 0.25 |
| VWWR | ≤ 0.25 |
| GESN | ≤ 0.25 |
| LFYI | ≤ 0.25 |
| PKWH | ≤ 0.25 |
| IPYW | ≤ 0.25 |
| TRKG | ≤ 0.25 |
| ISGC | ≤ 0.25 |
| KDAP | ≤ 0.25 |
| YINL | ≤ 0.25 |
| VQAV | ≤ 0.25 |
| PLKN | ≤ 0.25 |
| IIAY | ≤ 0.25 |
| DPLS | ≤ 0.25 |
| PEQM | ≤ 0.25 |

| Variant | enrichment ratio |
| --- | --- |
| MNGV | 5.07 |
| YSNL | ≤ 0.25 |
| NKPP | ≤ 0.25 |
| VGED | ≤ 0.25 |
| HVPS | ≤ 0.25 |
| EGQE | ≤ 0.25 |
| DIPP | ≤ 0.25 |
| SQWP | ≤ 0.25 |
| GVCE | ≤ 0.25 |
| NGEP | ≤ 0.25 |
| GVFP | ≤ 0.25 |
| IHGI | ≤ 0.25 |
| AMYQ | ≤ 0.25 |
| SAVQ | 9.3 |
| SQYA | ≤ 0.25 |
| PCGK | ≤ 0.25 |
| ISHI | ≤ 0.25 |
| IKWM | ≤ 0.25 |
| VELE | ≤ 0.25 |
| VAAE | ≤ 0.25 |
| PGVN | ≤ 0.25 |

| Variant | enrichment ratio |
| --- | --- |
| CYYN | ≤ 0.25 |
| YDLP | ≤ 0.25 |
| VSDK | ≤ 0.25 |
| HGFF | ≤ 0.25 |
| TIQT | 12.7 |
| PQTI | ≤ 0.25 |
| SGTR | ≤ 0.25 |
| SLES | ≤ 0.25 |
| TTFA | ≤ 0.25 |
| IHAI | ≤ 0.25 |
| FMIP | 1.25 |
| ILYR | ≤ 0.25 |
| YAHQ | ≤ 0.25 |
| NTDF | ≤ 0.25 |
| WTGC | ≤ 0.25 |
| RCKL | ≤ 0.25 |
| IEEP | ≤ 0.25 |
| DYMF | ≤ 0.25 |
| PLLP | ≤ 0.25 |
| TADT | ≤ 0.25 |
| MNRW | ≤ 0.25 |

| Variant | enrichment ratio |
| --- | --- |
| FPGW | ≤ 0.25 |
| RTSP | ≤ 0.25 |
| NLWA | ≤ 0.25 |
| EGGI | ≤ 0.25 |
| IESV | ≤ 0.25 |
| VFWE | ≤ 0.25 |
| FAGG | ≤ 0.25 |
| IKCG | ≤ 0.25 |
| NFMV | ≤ 0.25 |
| QIDH | ≤ 0.25 |
| LVAT | ≤ 0.25 |
| TRGH | ≤ 0.25 |
| SMTF | 10.2 |
| PINS | ≤ 0.25 |
| QLWT | ≤ 0.25 |
| RQSW | ≤ 0.25 |
| MLQA | ≤ 0.25 |
| ATGH | 5.03 |
| HKQR | ≤ 0.25 |
| PWSS | ≤ 0.25 |
| STKK | ≤ 0.25 |
